Results reported in PubChem BioAssay (Tox21).
Inconclusive results, whose numbers are uncertain, are shown with a selection of clear calls. For part of these data: Where the call is inconclusive, the potency comes from a doubtful curve fit. Active and inactive are the calls of the source. Unless noted, calls follow the shape of the dose curve; as a rule, active = well fitted curve in the direction sought with a large enough effect in the repeat runs; inconclusive = weak or mixed curves; inactive = no such curve, though single readings can be large; an effect the other way counts as inactive or inconclusive.

Key:
[1] = qHTS assay to identify small molecule antagonists of the farnesoid-X-receptor (FXR) signaling pathway - cell viability counter screen (AID 743221; active = well fitted cell-killing curve with a large enough effect in the repeat runs, not every such curve was filed as active; inconclusive = weak or mixed curves, or effect the other way; inactive = no such curve, though single readings can be large or run the other way; also: nearly all actives have a fitted effect of over 50% in size; also: potency is read from the fitted curve at half-maximal effect; as to activity change, negative = cytotoxicity: % is scaled to controls: 0 for no effect and ±100 for the full control effect); conditions: FXR-bla HEK293T viability, CellTiter-Glo luminescence, 16 h; activity change, negative = cytotoxicity: at 62.6 µM (top of the series) unless noted
In short: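 In GeneBLAzer FXR-UAS-bla HEK 293T cells stimulated with 50 uM chenodeoxycholic acid (final), compounds acted for 16 h at 37 C. Viability was assessed afterwards by CellTiter-Glo luminescence.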

[2] = target: Vitamin D3 receptor (Homo sapiens) (UniProt P11473); assay: qHTS assay to identify small molecule antagonists of the vitamin D receptor (VDR) signaling pathway (AID 743223; active = well fitted inhibition curve with a large enough effect in the signal ratio in the repeat runs, not every such curve was filed as active; inconclusive = weak or mixed curves, or effect the other way; inactive = no such curve, though single readings can be large or run the other way; the % refers to the signal ratio; also: potency is read from the fitted curve at half-maximal effect; as to activity change, negative = inhibition: % is scaled to controls: 0 for no effect and ±100 for the full control effect); conditions: VDR-UAS-bla HEK293T, beta-lactamase FRET ratio, 16 h; activity change, negative = inhibition: at 61 µM (top of the series) unless noted
UniProt P11473, sequence (P11473 whole entry, looked up): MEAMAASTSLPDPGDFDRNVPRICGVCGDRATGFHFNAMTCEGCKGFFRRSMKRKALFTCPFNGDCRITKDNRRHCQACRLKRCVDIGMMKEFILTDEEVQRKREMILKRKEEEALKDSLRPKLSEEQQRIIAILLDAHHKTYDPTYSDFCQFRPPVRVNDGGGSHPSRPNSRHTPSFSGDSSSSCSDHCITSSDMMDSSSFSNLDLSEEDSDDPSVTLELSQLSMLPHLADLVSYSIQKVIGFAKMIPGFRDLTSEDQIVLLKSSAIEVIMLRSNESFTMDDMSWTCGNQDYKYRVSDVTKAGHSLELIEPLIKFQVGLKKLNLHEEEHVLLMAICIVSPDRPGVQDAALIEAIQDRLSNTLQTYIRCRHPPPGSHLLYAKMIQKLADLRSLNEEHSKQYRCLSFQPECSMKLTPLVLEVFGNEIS
In short: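 Agonist 1alpha,25-dihydroxyvitamin D3 (3 nM in well) was added with each compound to VDR-bla cells preincubated 4 h. Cells stood 16 h at 37C, then FRET substrate 2 h at room temperature; fluorescence intensity recorded.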

[3] = qHTS assay to identify small molecule agonists of the AP-1 signaling pathway - cell viability counter screen (AID 1159525; calls by dose curve; also: nearly all actives have a fitted effect of over 55% in size; also: potency is read from the fitted curve at half-maximal effect)
In short: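 Intracellular ATP by Cell Titer Glo luminescence (30 min, RT) in the same ME-180 AP-1-bla wells after the 5 h compound exposure at 37 °C. Normalised to tetra n-octyl ammonium bromide and DMSO controls.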

[4] = qHTS assay for small molecule activators of the heat shock response signaling pathway - cell viability counter screen (AID 743209); conditions: HSE-bla HeLa viability, CellTiter-Glo luminescence, 5 h; activity change, negative = cytotoxicity: at 62.6 µM (top of the series); also: nearly all actives have a fitted effect of over 50% in size; also: potency is read from the fitted curve at half-maximal effect
In short: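 Cytotoxicity counter screen run in the same wells as the heat-shock bla reporter assay: HeLa HSE-bla cells, 5 h compound exposure at 37 C, viability read by CellTiter-Glo luminescence.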

[5] = qHTS assay for small molecule agonists of the antioxidant response element (ARE) signaling pathway (AID 743202; active = well fitted activation curve with a large enough effect in the signal ratio in the repeat runs, not every such curve was filed as active; inconclusive = weak or mixed curves, or effect the other way; inactive = no such curve, though single readings can be large or run the other way; the % refers to the signal ratio; also: potency is read from the fitted curve at half-maximal effect; as to activation: % is scaled to controls: 0 for no effect and ±100 for the full control effect); conditions: HepG2 ARE-bla reporter, beta-lactamase FRET, 16 h; activation: at 73.3 µM (top of the series) unless noted
In short: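 After 16 hours of compound treatment at 37 C, HepG2 cells with a stably integrated ARE-driven beta-lactamase reporter were loaded 2 hours at room temperature with LiveBLAzer B/G FRET substrate and fluorescence intensity measured.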

[6] = target: Bile acid receptor (Homo sapiens) (UniProt Q96RI1); assay: qHTS assay to identify small molecule antagonists of the farnesoid-X-receptor (FXR) signaling pathway (AID 743217; active = well fitted inhibition curve with a large enough effect in the signal ratio in the repeat runs, not every such curve was filed as active; inconclusive = weak or mixed curves, or effect the other way; inactive = no such curve, though single readings can be large or run the other way; the % refers to the signal ratio; also: potency is read from the fitted curve at half-maximal effect); conditions: HEK293T FXR-UAS-bla, beta-lactamase ratio, CDCA-stimulated, 16 h; activity change, negative = inhibition: at 62.6 µM (top of the series) unless noted
UniProt Q96RI1, sequence (Q96RI1 whole entry, looked up): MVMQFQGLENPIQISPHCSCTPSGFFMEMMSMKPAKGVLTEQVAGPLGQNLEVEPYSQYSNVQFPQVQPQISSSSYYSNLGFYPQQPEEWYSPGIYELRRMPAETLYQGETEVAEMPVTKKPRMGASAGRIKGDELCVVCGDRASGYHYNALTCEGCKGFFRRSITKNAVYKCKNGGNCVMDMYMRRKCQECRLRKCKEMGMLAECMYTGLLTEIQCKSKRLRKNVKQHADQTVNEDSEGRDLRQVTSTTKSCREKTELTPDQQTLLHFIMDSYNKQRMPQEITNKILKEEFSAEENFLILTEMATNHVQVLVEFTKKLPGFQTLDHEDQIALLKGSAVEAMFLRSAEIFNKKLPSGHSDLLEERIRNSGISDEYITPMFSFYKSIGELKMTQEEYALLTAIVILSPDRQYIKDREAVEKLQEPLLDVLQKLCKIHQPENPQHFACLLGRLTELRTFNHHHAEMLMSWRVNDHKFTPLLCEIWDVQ
In short: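 Antagonist mode: chenodeoxycholic acid at 50 uM final stimulates a UAS-driven beta-lactamase reporter in HEK 293T FXR-bla cells during 16 h, 37C compound exposure. Read-out is FRET substrate fluorescence after 2 h at room temperature.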

[7] = qHTS assay to identify small molecule antagonists of the vitamin D receptor (VDR) signaling pathway - cell viability counter screen (AID 743225); conditions: VDR-bla HEK293T viability, CellTiter-Glo luminescence, 16 h; viability change, negative = cytotoxic: at 61 µM (top of the series) unless noted; also: nearly all actives have a fitted effect of over 50% in size; also: potency is read from the fitted curve at half-maximal effect
In short: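 Luminescent cell viability (CellTiter-Glo) in VDR-bla HEK 293T cells after 16 h compound exposure at 37C in the presence of 3 nM final 1-alpha,25-dihydroxy vitamin D3.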

[8] = qHTS assay to identify small molecule agonists of the farnesoid-X-receptor (FXR) signaling pathway - cell viability counter screen (AID 743218); conditions: FXR-bla HEK293T viability, CellTiter-Glo luminescence, 16 h; viability change, negative = cytotoxic: at 62.6 µM (top of the series) unless noted; also: nearly all actives have a fitted effect of over 45% in size; also: potency is read from the fitted curve at half-maximal effect
In short: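 Viability counter screen in the same wells: CellTiter-Glo luminescence, 30 min room-temperature incubation, measured after the beta-lactamase read. Cells were GeneBLAzer FXR-UAS-bla HEK 293T, compound-treated 16 h at 37C.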

[9] = target: Vitamin D3 receptor (Homo sapiens) (UniProt P11473); assay: qHTS assay to identify small molecule agonists of the vitamin D receptor (VDR) signaling pathway (AID 743222; calls by dose curve; also: potency is read from the fitted curve at half-maximal effect); conditions: HEK293T VDR-UAS-bla, beta-lactamase FRET ratio, 16 h
In short: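 Agonist mode, beta-lactamase reporter: fluorescence from LiveBLAzer B/G FRET substrate (2 h, room temperature) read after 16 h compound treatment at 37 C of VDR-bla cells, which were pre-incubated 4 h after seeding.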

[10] = qHTS assay for small molecule activators of the heat shock response signaling pathway (AID 743210; active = well fitted activation curve with a large enough effect in the signal ratio in the repeat runs, with a control signal flat, not every such curve was filed as active; inconclusive = weak or mixed curves; the % refers to the signal ratio; also: potency is read from the fitted curve at half-maximal effect); conditions: HeLa HSE-bla reporter, beta-lactamase ratio, 5 h; activation: at 62.6 µM (top of the series) unless noted
In short: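 Compound exposure lasted 5 h at 37 C in HeLa cells carrying a heat-shock-element-driven beta-lactamase reporter. Read-out: fluorescence intensity after 2.5 h room-temperature loading with LiveBLAzer B/G FRET substrate.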

[11] = target: Peroxisome proliferator-activated receptor delta (Homo sapiens) (UniProt Q03181); assay: qHTS assay to identify small molecule antagonists of the peroxisome proliferator-activated receptor delta (PPARd) signaling pathway (AID 743215; active = well fitted inhibition curve with a large enough effect in the signal ratio in the repeat runs, not every such curve was filed as active; inconclusive = weak or mixed curves, or effect the other way; inactive = no such curve, though single readings can be large or run the other way; the % refers to the signal ratio;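 also: cells stimulated with agonist L165041 at 300 nM final during compound exposure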; also: potency is read from the fitted curve at half-maximal effect); conditions: HEK293H PPARd-UAS-bla, beta-lactamase FRET ratio, antagonist, 17 h; ratio activity, negative = inhibition: at 62 µM (top of the series) unless noted
UniProt Q03181, sequence (Q03181 whole entry, looked up): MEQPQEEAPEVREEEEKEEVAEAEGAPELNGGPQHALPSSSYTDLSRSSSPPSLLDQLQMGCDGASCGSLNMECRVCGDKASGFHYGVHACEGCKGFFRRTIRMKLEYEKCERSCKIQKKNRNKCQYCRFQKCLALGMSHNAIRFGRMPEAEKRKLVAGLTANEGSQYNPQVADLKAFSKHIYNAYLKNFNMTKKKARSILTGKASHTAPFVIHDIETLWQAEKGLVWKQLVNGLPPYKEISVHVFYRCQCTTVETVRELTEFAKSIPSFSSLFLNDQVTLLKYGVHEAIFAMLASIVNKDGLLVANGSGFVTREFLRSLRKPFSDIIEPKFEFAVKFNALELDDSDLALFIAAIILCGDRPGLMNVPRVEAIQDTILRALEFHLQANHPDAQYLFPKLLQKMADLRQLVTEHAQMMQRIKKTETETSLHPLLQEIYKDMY
In short: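 Agonist L165041 (300 nM final) added with compound to PPARd-bla HEK293H UAS-bla reporter cells; 17 h incubation at 37 C. Read-out: LiveBLAzer FRET substrate, 2 h at room temperature, fluorescence intensity.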

[12] = qHTS assay to identify small molecule agonists of the peroxisome proliferator-activated receptor delta (PPARd) signaling pathway - cell viability counter screen (AID 743211); conditions: PPARd-bla HEK293H viability, CellTiter-Glo luminescence, 17 h; activity change, negative = cytotoxicity: at 62.6 µM (top of the series); also: potency is read from the fitted curve at half-maximal effect; nearly all actives have a fitted effect of over 55% in size
In short: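 Luminescent ATP viability assay (CellTiter-Glo, 30 min RT) in UAS-bla HEK293H cells carrying the PPAR delta reporter construct, 3000 cells/well, after a 17 h compound treatment at 37 C.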

[13] = qHTS assay to identify small molecule agonists of the vitamin D receptor (VDR) signaling pathway - cell viability counter screen (AID 743224); conditions: VDR-bla HEK293T viability, CellTiter-Glo luminescence, 16 h; activity change, negative = cytotoxicity: at 62.6 µM (top of the series); also: nearly all actives have a fitted effect of over 50% in size; also: potency is read from the fitted curve at half-maximal effect
In short: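 Counter screen run in the same wells as the VDR-bla reporter assay: CellTiter-Glo luminescence, 30 min at room temperature, after 16 h compound treatment at 37C of cells pre-plated for 4 h.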

[14] = qHTS assay to identify small molecule antagonists of the peroxisome proliferator-activated receptor delta (PPARd) signaling pathway - cell viability counter screen (AID 743213); conditions: PPARd-bla HEK293H viability, CellTiter-Glo luminescence, 17 h; viability change, negative = cytotoxic: at 62 µM (top of the series) unless noted; also: nearly all actives have a fitted effect of over 50% in size; also: potency is read from the fitted curve at half-maximal effect
In short: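 PPARd-bla HEK293H cells (3000/well) got compound plus 300 nM L165041 agonist for 17 h at 37 C. Viability in the same wells came from CellTiter-Glo luminescence after 30 min at room temperature.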

[15] = qHTS assay to identify small molecule agonists of the AP-1 signaling pathway (AID 1159526; calls by dose curve; as to all read-outs here: % is scaled to controls: 0 for no effect and ±100 for the full control effect); conditions: ME-180 (cervical carcinoma) AP-1-bla reporter, beta-lactamase FRET ratio, 5 h; for Potency: activation: at 76.8 µM (top of the series) unless noted
[16] = target: Bile acid receptor (Homo sapiens) (UniProt Q96RI1); assay: qHTS assay to identify small molecule agonists of the farnesoid-X-receptor (FXR) signaling pathway (AID 743220; active = well fitted activation curve with a large enough effect in the signal ratio in the repeat runs, not every such curve was filed as active; inconclusive = weak or mixed curves, or effect the other way; the % refers to the signal ratio; also: potency is read from the fitted curve at half-maximal effect); conditions: HEK293T FXR-UAS-bla, beta-lactamase FRET ratio, 16 h; activation: at 62.6 µM (top of the series)
In short: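 FXR-UAS-bla HEK 293T cells carrying a UAS-driven beta-lactamase reporter were plated for 5 h at 37C/5% CO2, then exposed to DMSO-dissolved Tox21 10K compounds for 16 h at 37C. A LiveBLAzer B/G FRET substrate was loaded for 2 h at room temperature before fluorescence reading.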

[17] = target: Peroxisome proliferator-activated receptor delta (Homo sapiens) (UniProt Q03181); assay: qHTS assay to identify small molecule agonists of the peroxisome proliferator-activated receptor delta (PPARd) signaling pathway (AID 743212; calls by dose curve;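 also: HEK293H cells with PPARd UAS beta-lactamase reporter GeneBLAzer system; potency is read from the fitted curve at half-maximal effect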); conditions: HEK293H PPARd-UAS-bla, beta-lactamase FRET ratio, 17 h; activation: at 62.6 µM (top of the series) unless noted
In short: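 Beta-lactamase reporter readout: a ratiometric FRET signal from the LiveBLAzer substrate after 2 h at room temperature. Compound exposure at 37 °C in PPARδ-bla HEK293H cells driven by an upstream activator sequence.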

[18] = activation: at 63.5 µM (top of the series) unless noted
Tags tell the direction and shape of the fitted curve or compound fluorescence and quenching.

## CCCn1cnc2c1c(=O)n(CCCCC(C)=O)c(=O)n2C
[1]
  Potency: inactive
[2]
  Potency: inactive
[3]
  Potency: inactive

## COc1ccc(C(=O)N2CCN(CC(=O)N3CCOCC3)CC2)cc1
[4]
  Potency: inconclusive: 150 nM [rising, full curve]
[2]
  Potency: inactive
[3]
  Potency: inconclusive: 2.7 nM [rising, full curve, poor fit]

## CCC/C=C/CO
[5]
  Potency: inactive
[6]
  activity change, negative = inhibition: inconclusive: 3.17%
[3]
  Potency: inconclusive: 8.7 nM [rising, full curve, poor fit]

## c1ccc2c(c1)ccc1c3ccccc3ccc21
[5]
  Potency: active: 24800 nM
[7]
  Potency: inconclusive: 8890 nM [rising, partial curve, poor fit]
[3]
  Potency: inactive

## CC(C)OC(C)C
[5]
  activation: inconclusive: -25.8% [at 94.8 µM]
[8]
  Potency: inactive
[3]
  Potency: inconclusive: 1.4 nM [rising, full curve, poor fit]

## CCCCCCCCCCCCc1ccccc1
[1]
  Potency: inconclusive: 54900 nM [rising, partial curve]
[9]; [18]
  Potency: inactive
[2]
  activity change, negative = inhibition: inconclusive: 15.7%
[3]
  Potency: inactive

## CN(C)CCOCCN(C)CCO
[10]
  Potency: inactive
[8]
  Potency: inconclusive: 155 nM [rising, partial curve, poor fit]
[3]
  Potency: inactive

## O=C(O)[C@@H](O)[C@H](O)[C@H](O)[C@@H](O)C(=O)O
[4]
  activity change, negative = cytotoxicity: inconclusive: -23.8% [cytotoxic]
[8]
  Potency: inactive
[3]
  Potency: inconclusive: 239 nM [cytotoxic, single point]

## C=C1CC/C=C(\C)CC[C@@H]2[C@@H]1CC2(C)C
[4]
  Potency: inactive
[9]; [18]
  Potency: inactive
[3]
  Potency: inactive

## CC1(C)C(O)C(C)(C)C1O (centres undefined)
[5]
  Potency: inactive
[11]
  Potency: inactive
[2]
  Potency: inactive
[3]
  Potency: inactive

## COCCOCCOCCOCCOC
[11]
  ratio activity, negative = inhibition: inconclusive: 3%
[1]
  Potency: inconclusive: 21900 nM [falling, partial curve, poor fit]
[3]
  Potency: inactive

## CC(=O)Nc1cccc(O)c1
[5]
  Potency: inactive
[7]
  Potency: inactive
[3]
  Potency: inconclusive: 213 nM [cytotoxic, single point]

## Clc1ccccc1CN1CCc2sccc2C1
[12]
  Potency: inconclusive: 5960 nM [cytotoxic, partial curve, poor fit]
[3]
  Potency: inconclusive: 26800 nM [cytotoxic, single point]

## NC(=O)C1(N2CCCCC2)CCN(CCCC(=O)c2ccc(F)cc2)CC1
[2]
  activity change, negative = inhibition: inconclusive: 3.16%

## CCOC(=O)NCCC[Si](OCC)(OCC)OCC
[2]
  activity change, negative = inhibition: inconclusive: -0.334%

## CC[N+]1(CC)CCC(=C(c2ccccc2)c2ccccc2)C1C (centres undefined)
[13]
  Potency: inconclusive: 33500 nM [rising, single point]
[7]
  Potency: inconclusive: 477 nM [cytotoxic, single point]

## Nc1ccc(S(=O)(=O)c2ccc(N)cc2)cc1
[7]
  Potency: inconclusive: 952 nM [cytotoxic, single point]
  viability change, negative = cytotoxic: inconclusive: -21.9% [cytotoxic]

## Cc1occc(=O)c1O
[5]
  Potency: inconclusive: 77000 nM [rising, partial curve, poor fit]
[2]
  Potency: inconclusive: 64600 nM [activator, single point]
[7]
  Potency: inconclusive: 61700 nM [cytotoxic, single point]

## O=C(c1ccccc1)c1ccccc1
[5]
  Potency: inactive
[14]
  Potency: inactive
[13]
  Potency: inactive
[15]; at 35.3 µM (top of the series)
  activation: inactive: -1.52%

## C=C(C)C(=O)OCCOCCOCCOC(=O)C(=C)C
[8]
  Potency: inconclusive: 5500 nM [rising, full curve, poor fit]
[1]
  Potency: inactive

## CC1CCC(C(C)C)C(O)C1 (centres undefined)
[8]
  Potency: inconclusive: 61100 nM [rising, single point]
[9]; [18]
  activation: inconclusive: 8.04%
[2]
  activity change, negative = inhibition: inconclusive: 19.3%

## CCCCCCCCCCCCCCCCOS(=O)(=O)O
[16]
  Potency: inactive

## Cn1cc[nH]c1=S
[9]; at 63.5 µM (top of the series)
  activation: inactive: 3.49%

## CC(C)C[C@H](NC(=O)[C@H](Cc1ccccc1)NC(=O)c1cnccn1)B(O)O
[5]
  Potency: active: 23.7 nM
[10]
  Potency: inconclusive: 348 nM
[12]
  Potency: inconclusive: 75 nM [cytotoxic, full curve]
[17]
  Potency: inconclusive: 335 nM [rising, full curve]
[14]
  Potency: inconclusive: 1880 nM [cytotoxic, partial curve, poor fit]
[11]
  Potency: inconclusive: 376 nM [rising, full curve]
[6]
  Potency: inconclusive: 2660 nM [rising, partial curve]
[8]
  Potency: inconclusive: 237 nM [cytotoxic, full curve]
[16]
  Potency: inconclusive: 9440 nM [rising, partial curve]
[9]; [18]
  Potency: inconclusive: 2980 nM [rising, partial curve, poor fit]
[2]
  Potency: inconclusive: 1690 nM
[13]
  Potency: inconclusive: 376 nM [cytotoxic, full curve, poor fit]
[15]
  Potency: inactive

## CC(C)O.CC(C)O.CCOC(=O)/C=C(\C)O.CCOC(=O)/C=C(\C)O.[Ti]
[5]
  Potency: inconclusive: 13700 nM [falling, full curve]
[4]
  Potency: inactive
[1]
  Potency: inconclusive: 54900 nM [falling, partial curve, poor fit]
[15]
  Potency: inactive

## CC(C)=CCCC(C)C=O (centres undefined)
[5]
  activation: inconclusive: 16.5%
[10]
  Potency: inactive
[15]
  Potency: inactive

## O=C(O)c1ccc(C(=O)O)c(C(=O)O)c1
[5]
  Potency: inactive
[4]
  Potency: inconclusive: 22200 nM [cytotoxic, single point]
[10]
  Potency: inactive
[15]
  Potency: inactive
